IC50 is the fitted dose that halves viability relative to control wells, and lower means more sensitive; a limit (>, <) means that the fit lies beyond the doses tested. AUC is the area under the same curve over the 256-fold range up to the top dose, as a fraction: 1 means no effect, lower means more sensitive. For part of these data: Any top dose called inferred is not printed in the source and was worked back from the curve model.
Experiments:
Experiment in all cases: Viability of human cancer cell lines after 72 h of drug (GDSC screen)
[1] = compound: CS(=O)(=O)c1ccc(C(=O)Nc2ccc(Cl)c(-c3ccccn3)c2)c(Cl)c1 [Vismodegib]; conditions: top dose 10 µM; top dose inferred
Description: (§1)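 Human cancer cell lines in 384-well plates, medium with 10% serum, drug for 72 h over a 256-fold dose range (nine 2-fold or five 4-fold steps up to the top dose). Adherent lines were fixed and stained with the nucleic acid dye Syto60, suspension lines read with resazurin; signal relative to control wells, capped at 0 and 100%. One two-parameter sigmoid per drug and line, fitted in a mixed model over all curves with the slope shared within a line.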

[2] = compound: O=C(c1ccc(C(=O)N2CCC(N3CCCC3)CC2)c(Nc2ccccc2)c1)N1CCC(N2CCCC2)CC1 [UNC1215]; conditions: top dose 1 µM; top dose inferred
Description: as §1

[3] = compound: Cc1cnc(Nc2ccc(F)cc2Cl)nc1-c1c[nH]c(C(=O)N[C@H](CO)c2cccc(Cl)c2)c1 [VX-11e]; conditions: top dose 5.12 µM; top dose inferred
Description: as §1

[4] = compound: COc1cccc2c1C(=O)c1c(O)c3c(c(O)c1C2=O)C[C@@](O)(C(=O)CO)C[C@@H]3O[C@H]1C[C@H](N)[C@H](O)[C@H](C)O1 [Doxorubicin]; conditions: top dose 1.024 µM
Description: as §1

[5] = compound: C=CCNC1=C2C[C@@H](C)C[C@H](OC)[C@H](O)[C@@H](C)/C=C(\C)[C@H](OC(N)=O)[C@@H](OC)/C=C\C=C(/C)C(=O)NC(=CC1=O)C2=O [17-AAG]; conditions: top dose 1 µM
Description: as §1

[6] = compound: COC(=O)CNC(=O)C(=O)OC [Dimethyloxalylglycine]; conditions: top dose 4000 µM; top dose inferred
Description: as §1

[7] = compound: COc1cccc2cc(-c3nc([C@H]4CC[C@H](C(=O)O)CC4)n4ncnc(N)c34)[nH]c12 [OSI-027]; conditions: top dose 20 µM
Description: as §1

[8] = compound: Cc1cnc(Nc2ccc(OCCN3CCCC3)cc2)nc1Nc1cccc(S(=O)(=O)NC(C)(C)C)c1 [TG101348]; conditions: top dose 10.24 µM
Description: as §1

[9] = compound: CN(C)Cc1cccc(N=C(c2ccccc2)c2c(O)[nH]c3cc(C(=O)N(C)C)ccc23)c1 [BIX02189]; conditions: top dose 20 µM; top dose inferred
Description: as §1

[10] = compound: CCc1cc(-c2n[nH]c(C)c2-c2ccc3c(c2)OCCO3)c(O)cc1O [CCT018159]; conditions: top dose 10 µM; top dose inferred
Description: as §1

Row | Cell Line | AUC [1] | IC50 [1] [µM] | AUC [2] | IC50 [2] [nM] | AUC [3] | IC50 [3] [µM] | AUC [4] | IC50 [4] [nM] | AUC [5] | IC50 [5] [nM] | AUC [6] | IC50 [6] [µM] | AUC [7] | IC50 [7] [nM] | AUC [8] | IC50 [8] [µM] | AUC [9] | IC50 [9] [µM] | AUC [10] | IC50 [10] [µM]
1 | A3-KAW (B-cell lymphoma, suspension) | 0.988 | > 10 | 0.989 | > 1000 | 0.728 | 1.2 | 0.423 | 41.2 | 0.963 | > 1000 | 0.097 | 18.5 | 0.095 | 90.9 | 0.362 | 0.29 | 0.77 | 6.14 | 0.94 | > 10
2 | KM-H2 (Hodgkin lymphoma, suspension) | 0.984 | > 10 | 0.988 | > 1000 | 0.969 | > 5.12 | 0.598 | 113 | 0.937 | > 1000 | 0.833 | 2060 | 0.601 | 2260 | 0.835 | 5.33 | 0.946 | > 20 | 0.976 | > 10
3 | NB12 (neuroblastoma, adherent) | 0.958 | > 10 | 0.977 | > 1000 | 0.973 | > 5.12 | 0.702 | 292 | 0.833 | 987 | 0.356 | 86.7 | 0.788 | 12200 | 0.769 | 5.21 | 0.972 | > 20 | 0.944 | > 10
4 | OCI-M1 (acute myeloid leukaemia, suspension) | 0.994 | > 10 | 0.991 | > 1000 | 0.839 | 2.37 | 0.664 | 162 | 0.987 | > 1000 | 0.77 | 1190 | 0.062 | < 78.1 | 0.123 | 0.0655 | 0.955 | > 20 | 0.993 | > 10
5 | KY821 (leukaemia, suspension) | 0.981 | > 10 | 0.99 | > 1000 | 0.906 | > 5.12 | 0.929 | > 1020 | 0.88 | 808 | 0.904 | > 4000 | 0.839 | 11200 | 0.901 | > 10.2 | 0.979 | > 20 | 0.956 | > 10
6 | NU-DUL-1 (B-cell lymphoma, suspension) | 0.975 | > 10 | 0.985 | > 1000 | 0.911 | 4.8 | 0.427 | 42.1 | 0.993 | > 1000 | 0.445 | 183 | 0.031 | < 78.1 | 0.644 | 1.47 | 0.653 | 3.02 | 0.954 | > 10
7 | IPC-298 (melanoma, adherent) | 0.975 | > 10 | 0.985 | > 1000 | 0.673 | 0.962 | 0.659 | 175 | 0.553 | 86.9 | 0.792 | 1770 | 0.525 | 1460 | 0.897 | > 10.2 | 0.922 | > 20 | 0.896 | > 10
8 | H2373 (mesothelioma, adherent) | 0.983 | > 10 | 0.98 | > 1000 | 0.956 | > 5.12 | 0.728 | 343 | 0.67 | 211 | 0.523 | 294 | 0.47 | 1020 | 0.866 | > 10.2 | 0.934 | > 20 | 0.932 | > 10
9 | EM-2 (chronic myeloid leukaemia, suspension) | 0.974 | > 10 | 0.97 | > 1000 | 0.782 | 2.44 | 0.744 | 355 | 0.912 | > 1000 | 0.478 | 216 | 0.506 | 1300 | 0.682 | 2.22 | 0.85 | 18.3 | 0.877 | > 10
10 | NCI-H596 (lung adenocarcinoma, adherent) | 0.977 | > 10 | 0.972 | > 1000 | 0.974 | > 5.12 | 0.571 | 106 | 0.875 | > 1000 | 0.898 | > 4000 | 0.644 | 3530 | 0.798 | 6.63 | 0.927 | > 20 | 0.871 | > 10
11 | HA7-RCC (kidney, adherent) | 0.975 | > 10 | 0.983 | > 1000 | 0.957 | > 5.12 | 0.763 | 404 | 0.749 | 353 | 0.884 | > 4000 | 0.703 | 4980 | 0.856 | 9.64 | 0.866 | > 20 | 0.977 | > 10
12 | FU97 (stomach, adherent) | 0.958 | > 10 | 0.984 | > 1000 | 0.96 | > 5.12 | 0.588 | 113 | 0.245 | 11.3 | 0.496 | 244 | 0.65 | 3310 | 0.872 | 10.2 | 0.955 | > 20 | 0.901 | > 10
